{
  "source": "PubChem BioAssay (Tox21)",
  "note": "The shares of active, inactive and inconclusive entries below differ from those in the screen. No potency is given beside an inconclusive call; the fits are too rough. Calls of active or inactive are those of the source. Calls follow the shape of the dose curve; as a rule, active = well fitted activation curve with a large enough effect in the repeat runs; inconclusive = weak or mixed curves; inactive = flat fitted curve, though single readings scatter. Potency is read from the fitted curve at half-maximal effect; tags tell the direction and shape of the fitted curve.",
  "data": [
    {"assay": "A CellTox Green Cytotoxicity Assay to monitor cytotoxicity in HEK293 cells - 32 hour (AID 1224881); also: nearly all actives have a fitted effect of over 40% in size", "conditions": "CellTox Green fluorescence; series mostly up to 76.8 µM", "outline": "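Read-out: fluorescence of a cell-impermeant cyanine dye staining DNA of dead cells, proportional to cytotoxicity. HEK293, 600 cells/well with reagent, compound (23 nL DMSO) added after 5 h; reads at 0, 8, 16, 24, 32, 40 h.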", "values": [
      {"smiles": "Cc1cc2c(OCC(CNC(C)(C)C)OC(=O)c3ccccc3)cccc2[nH]1", "note": "(stereo not drawn)", "Potency": "inconclusive [activator, partial curve, poor fit]"},
      {"smiles": "O=C=Nc1cccc(C(F)(F)F)c1", "Potency": "inconclusive [activator, single point]"},
      {"smiles": "CCCCCCCCN", "Potency": "inconclusive [activator, partial curve, poor fit]"},
      {"smiles": "NCCO", "Potency": "inconclusive [activator, single point]"},
      {"smiles": "O=C1CC2CC1C1CCCC21", "note": "(stereo not drawn)", "Potency": "inconclusive [activator, single point]"},
      {"smiles": "CC1=C(C=O)C(C)(C)CCC1", "Potency": "inconclusive [activator, single point]"},
      {"smiles": "CCN(CC)CCOC(=O)C(Cc1cccc2ccccc12)CC1CCCO1", "note": "(stereo not drawn)", "Potency": "inconclusive [activator, single point]"},
      {"smiles": "CCCCCCC(CCCCCCCCCCC(=O)OCC(COC(C)=O)OC(C)=O)OC(C)=O", "note": "(stereo not drawn)", "Potency": "inactive"}
    ]}
  ]
}
